According to PubChem BioAssay AID652104 (National Center for Advancing Translational Sciences (NCATS), 2013):
Hit rate of the full screen: of about 410,000 compounds, about 7,200 (1.8%) were called active. The inconclusive results got no clear call from the source; some entries with a clear call stand among them for comparison. Calls follow the shape of the dose curve; as a rule, active = well fitted activation curve with a large enough effect; inconclusive = small, poorly fitted or top-dose-only effect, or another doubt; inactive = no such curve, though single readings can be large or run the other way. Where the call is inconclusive, the potency comes from a doubtful curve fit.

experiment: qHTS of TDP-43 Inhibitors; conditions: TDP-43 expressing yeast growth rescue, BacTiter-Glo, 24 h; growth rescue (activation): at 46.1 µM (top of the series) unless noted; also: nearly all actives have a fitted effect of over 50% in size; as to growth rescue (activation): % of control where 0% means no effect
Method in brief: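 Growth rescue of TDP-43-toxic yeast measured as ATP luminescence (BacTiter-Glo). Cells grown to mid-log in raffinose, induced in galactose at OD600=0.02, exposed to compound 24 hr at 30 deg C.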
Potency is read from the fitted curve at half-maximal effect; tags tell the direction and shape of the fitted curve.

Compound | growth rescue (activation) | Potency
CSc1ccc(CN(C)CC(=O)Nc2ccc(C)cc2Br)cc1 | inconclusive: 34.5% [activator] | –
COc1ccc(NC(=O)CN2C(=O)COc3ccc(S(=O)(=O)Nc4ccccc4)cc32)cc1 | – | inconclusive: 0.501 µM [activator, partial curve, poor fit]
CCC/C(O)=C1\C(=O)CC(C)(C)CC1=NCCO | – | inconclusive: 0.316 µM [activator, partial curve, poor fit]
CCCN(C(=O)c1cn(CC)c2nc(C)ccc2c1=O)c1c(N)n(Cc2ccccc2)c(=O)[nH]c1=O | – | inconclusive: 20 µM [activator, partial curve]
COC(=O)c1ccccc1NC(=O)c1ccc2c(c1)OCCCO2 | – | inconclusive: 20 µM [activator, single point]
Cn1c(=O)c2cc(NC(=O)NCc3ccc(F)cc3)ccc2n1Cc1cccc(C(F)(F)F)c1 | – | inconclusive: 3.98 µM [activator, full curve, poor fit]
COc1ccccc1NC(=O)Cc1nn(C)c(=O)c2ccccc12 | – | inconclusive: 35.5 µM [activator, partial curve]
CCCCc1nn2c(=O)cc(COC(=O)c3cccc(OC)c3)nc2s1 | – | inconclusive: 22.4 µM [activator, single point]
CC(C)CN1C(=O)/C(=C/c2cccs2)NC1=S | – | active: 25.1 µM
CN1CC(c2ccccc2Cl)C2(COc3ccccc3C2=O)C12C(=O)Nc1ccccc12 (configuration not stated) | – | inconclusive: 25.1 µM [activator, single point]
COc1ccc(OCC(=O)Nc2ccccc2OC(F)F)cc1 | – | inconclusive: 17.8 µM [activator, partial curve]
CCn1c(=O)c2cc(C(=O)N3CCOCC3)sc2c2ccccc21 | – | inactive
Cc1csc(=O)n1CC(=O)OCC(=O)Nc1cc(Cl)ccc1[N+](=O)[O-] | – | inconclusive: 3.98 µM [activator, full curve]
O=S(=O)(c1ccc2[nH]c3c(c2c1)CCCC3)N1CCCCC1 | – | inactive
CCn1c(COc2ccc(Cl)cc2)nnc1SC1CCc2ccccc2C1=O (configuration not stated) | – | inactive
CC1CCN(c2ncnc3c2cnn3-c2ccccc2)CC1 | – | inconclusive: 1.78 µM [activator, partial curve]
CCc1ccc(NC(=O)CSC2=Nc3ccccc3C3=NC(CCC(=O)NCCc4ccccc4)C(=O)N23)cc1 (configuration not stated) | – | inconclusive: 6.31 µM [activator, full curve, poor fit]
NC(=O)c1sc2nc(-c3ccccc3)c3c(c2c1N)CCCC3 | – | inconclusive: 12.6 µM [activator, single point]
Clc1cccc(C2Nc3cccc4cccc(c34)N2)c1 | – | inconclusive: 20 µM [activator, single point]
COc1ccc(-c2cc(NC=O)c3ncc(-c4cccc(C(F)(F)F)c4)n3c2)cc1OC | – | inconclusive: 35.5 µM [activator, single point]
O=C(CCl)NC(=O)NC12CC3CC(CC(C3)C1)C2 | – | inconclusive: 3.55 µM [activator, partial curve]
COc1cc(NS(=O)(=O)c2ccc(NC(=O)COc3ccccc3Cl)cc2)nc(OC)n1 | – | inactive
S=C(N=Nc1ccccc1)NNc1ccccc1 | – | inconclusive: 11.2 µM [activator, partial curve]
N/C(=N\OC(=O)C1CCCCC1)c1ccc(Br)cc1 | inconclusive: -74.8% [activator] | –

Compound | growth rescue (activation) | Potency
CS(=O)(=O)N(CC(=O)Nc1ccc2c(c1)OCO2)Cc1ccccc1 | – | inactive
CC(C)c1ccc(-c2nnc3n(CCc4ccccc4)c(=O)c4ccccc4n23)cc1 | – | inconclusive: 28.2 µM [activator, single point]
CC(C)COc1cccc(C(=O)NNC(=O)C2COc3ccccc3O2)c1 (configuration not stated) | – | inconclusive: 8.91 µM [activator, partial curve]
CCOC(=O)c1c(NC(C)=O)sc2c(O)c(Br)cc(Br)c12 | – | active: 12.6 µM
O=C(OCCc1cc2ccccc2c(=O)o1)c1cccc(Br)c1 | – | inconclusive: 3.55 µM [activator, partial curve]
Fc1cccc(/C=N/Nc2cc(N3CCOCC3)ncn2)c1 | – | inconclusive: 8.91 µM [activator, partial curve]
FC(F)C(F)(F)c1cc(-c2ccccc2)n[nH]1 | – | inconclusive: 12.6 µM [activator, single point]
Cc1cc(Br)cn2c(Cc3ccccc3C(F)(F)F)c(-c3cccc(Br)c3)nc12 | – | inactive
CNS(=O)(=O)c1ccc(Cl)nc1 | – | inactive
COc1cc(C2C3C(C)N(C)C(=O)N(C)C3N(C)C(=O)N2C)ccc1O (configuration not stated) | – | inactive
COc1ccc(-c2cccc(NC(=O)COc3ccc(Cl)cc3)c2)nn1 | – | active: 11.2 µM
CSc1nc(N)c(C(=O)N(c2ccccc2)c2ccccc2)s1 | – | inconclusive: 10 µM [activator, partial curve]
N/C(=N\OC(=O)CCc1ccccc1)c1ccc(Br)cc1 | – | inconclusive: 22.4 µM [activator, single point]
COc1ccccc1OCC(=O)Nc1nc2c(s1)CC(C)CC2 (configuration not stated) | – | inconclusive: 11.2 µM [activator, partial curve]
Fc1ccc(CSc2ccc3nnc(-c4ccccn4)n3n2)cc1 | – | inconclusive: 7.94 µM [activator, partial curve]
O=C(Nc1cc(Cl)ccc1Cl)c1ccco1 | – | inconclusive: 10 µM [activator, partial curve]
CCOC(=O)c1ccc(N2C(=O)CC(N3CCN(C(=O)c4ccco4)CC3)C2=O)cc1 (configuration not stated) | – | inconclusive: 14.1 µM [activator, single point]
Cc1ccc(CCNC(=O)C2CC(=O)N(CCc3ccccc3)C2)cc1 (configuration not stated) | – | inconclusive: 35.5 µM [activator, single point]
CC(C)c1ccc(CC(=O)N2CCC2(C)C(=O)NS(=O)(=O)c2ccc(C(C)(C)C)cc2)cc1 (configuration not stated) | – | active: 22.4 µM
O=C(Cc1c(F)cccc1Cl)OCC(=O)N1CCN(c2ccccc2)CC1 | – | inconclusive: 35.5 µM [activator, partial curve]
CCOc1ccc(-c2csc3ncn(-c4ccc(OC)cc4)c(=O)c23)cc1 | – | inconclusive: 12.6 µM [activator, partial curve]
CCCCNc1c(-c2ccc(-c3ccc(C(C)=O)cc3)c(OC)c2)nc2cnccn12 | – | inconclusive: 15.8 µM [activator, single point]
O=C(C(=O)N1CCC(Cc2ccccc2)CC1)c1ccccc1Br | – | inconclusive: 35.5 µM [activator, partial curve]
COc1ccc(Cl)cc1NC(=O)CN(C)C(=O)/C=C/c1ccco1 | – | active: 28.2 µM

Compound | growth rescue (activation) | Potency
CCc1ccc(OCC(=O)NCc2ccco2)c(Br)c1 | – | active: 12.6 µM
CC(=O)c1ccc(NC(=O)c2nc(-c3ccccc3)n(-c3ccccc3Cl)n2)cc1 | – | active: 14.1 µM
COc1ccc(CNCCCSc2nnnn2C)c(OC)c1 | inconclusive: 34.4% [activator] [at 9.22 µM] | –
COc1ccc(OC)c(S(=O)(=O)N2CCN(c3ccccc3)CC2)c1 | – | inconclusive: 11.2 µM [activator, partial curve]
Cc1cc(C)c(S(=O)(=O)NC2CC3CCC2C3)c(C)c1 (configuration not stated) | – | active: 12.6 µM
CC1(C)CC2CC(C)(CN2C(=O)C23CCC(C)(C(=O)C2)C3(C)C)C1 (configuration not stated) | – | inconclusive: 35.5 µM [activator, single point]
CCc1ccc2oc(=O)cc(CN(C)Cc3ccccc3)c2c1 | – | inactive
Clc1cccc(N2CCN(c3c4c(nc5nncn35)CCC4)CC2)c1 | – | active: 17.8 µM
Cc1ccc([C@H]2C[C@@H](n3cc(C4CC4)nn3)[C@H](O)CN2C(=O)C2CCCCC2)cc1 | – | inactive
O=C1C2C3C=CC(C3=C(c3ccccc3)c3ccccc3)C2C(=O)N1CCO (configuration not stated) | – | active: 20 µM
O=C(Nc1nccs1)c1ccc(NC(=O)c2ccco2)cc1 | – | inconclusive: 14.1 µM [activator, partial curve]
CC(C)c1cc(=O)oc2c3c4c(cc12)CCCN4CCC3 | – | inconclusive: 28.2 µM [activator, single point]
Cc1ccccc1C(=O)/C(C#N)=N/Nc1c(C)n(C)n(-c2ccccc2)c1=O | – | active: 35.5 µM
CCN(C(=O)c1cc(Cl)ccc1OC)c1ccccc1 | – | inconclusive: 25.1 µM [activator, single point]
CCCCn1c(=O)c2oc3ccccc3c2n(Cc2cccc(C)c2)c1=O | – | inactive
Nc1n[nH]c2cc(=O)n(-c3ccc(Cl)cc3)nc12 | – | inactive
Cc1ccc(Nc2cc(-n3cccn3)ncn2)c(C)c1 | – | inconclusive: 14.1 µM [activator, single point]
CCOCCCNC(=O)c1ccc2c(c1)ncn2-c1ccc(CC)cc1 | – | inconclusive: 15.8 µM [activator, single point]
CCOc1ccc(-c2nc(N)ncc2-c2ccccc2OC)c(O)c1 | – | inconclusive: 15.8 µM [activator, single point]
COCCNC(=O)c1cc(C)ccc1C | – | inactive
CC(C)C(=O)Nc1cccc(C(=O)Nc2ccccc2C(=O)O)c1 | – | inactive
CCCc1nc(SCC(=O)N2CCC(C)CC2)c2c(=O)n(C)c(=O)n(C)c2n1 | inconclusive: 59.9% [activator] | –
O=C(NCc1ccco1)c1ccc(Oc2ccccc2)cc1 | – | active: 20 µM
N#CC(c1ccc(Cl)cc1)c1nc2ccccc2nc1C(F)(F)F (configuration not stated) | – | inconclusive: 14.1 µM [activator, single point]
